Some of the results follow. Many values rest on one well or one pass, so single values are uncertain.
These molecules were tested on COLO829 (assay: cell count relative to DMSO control; melanoma cells; higher = more viable cells). Settings: library dose: low library concentration; 72 h.
`COc1ccc(C2=N[C@@H](c3ccc(Cl)cc3)[C@@H](c3ccc(Cl)cc3)N2C(=O)N2CCNC(=O)C2)c(OC(C)C)c1` [Nutlin-3] + OCc1c[nH]c2ccccc12 [Indole-3-carbinol] (first compound 0.1 µM, partner dose 0.8 µM) gave a cell count of 84.7%.
In the case of `COc1ccc(C2=N[C@@H](c3ccc(Cl)cc3)[C@@H](c3ccc(Cl)cc3)N2C(=O)N2CCNC(=O)C2)c(OC(C)C)c1` [Nutlin-3] + CS(=O)(=O)CCNCc1ccc(-c2ccc3ncnc(Nc4ccc(OCc5cccc(F)c5)c(Cl)c4)c3c2)o1 [lapatinib] (first compound 0.1 µM, partner dose 0.8 µM), the cell count is reported as 103%.
In the case of `Cc1cn(-c2cc(NC(=O)c3ccc(C)c(Nc4nccc(-c5cccnc5)n4)c3)cc(C(F)(F)F)c2)cn1` [nilotinib] + CC(=O)c1c(C)c2cnc(Nc3ccc(N4CCNCC4)cn3)nc2n(C2CCCC2)c1=O [palbociclib] (first compound 0.2 µM, partner dose 0.04 µM), the cell count is reported as 43.2%.
`Cc1cn(-c2cc(NC(=O)c3ccc(C)c(Nc4nccc(-c5cccnc5)n4)c3)cc(C(F)(F)F)c2)cn1` [nilotinib] + CCN(CC)CCNC(=O)c1c(C)[nH]c(/C=C2\C(=O)Nc3ccc(F)cc32)c1C [sunitinib] (first compound 0.2 µM, partner dose 0.4 µM) gave a cell count of 117%.
For `Cc1cc(Nc2cc(N3CCN(C)CC3)nc(/C=C/c3ccccc3)n2)n[nH]1` + COc1ccc(Cl)c(Nc2nc3ccccc3nc2NS(=O)(=O)c2cccc(NC(=O)C(C)(C)N)c2)c1 [XL147] (first compound 0.04 µM, partner dose 0.8 µM), the cell count was 104%.
Molecule `COc1ccc(C2=N[C@@H](c3ccc(Cl)cc3)[C@@H](c3ccc(Cl)cc3)N2C(=O)N2CCNC(=O)C2)c(OC(C)C)c1` [Nutlin-3] + NC1(c2ccc(-c3nc4ccn5c(=O)[nH]nc5c4cc3-c3ccccc3)cc2)CCC1 [MK2206] (first compound 0.1 µM, partner dose 0.4 µM) has a cell count of 96.7%.
Molecule `CC(C)C[C@H](NC(=O)[C@H](Cc1ccccc1)NC(=O)c1cnccn1)B(O)O` [Bortezomib] + CS(=O)(=O)CCNCc1ccc(-c2ccc3ncnc(Nc4ccc(OCc5cccc(F)c5)c(Cl)c4)c3c2)o1 [lapatinib] (first compound 0.001 µM, partner dose 0.8 µM) has a cell count of 57.8%.
`CC(C)C[C@H](NC(=O)[C@H](Cc1ccccc1)NC(=O)c1cnccn1)B(O)O` [Bortezomib] + C[C@]1(c2nc3c(C(N)=O)cccc3[nH]2)CCCN1 [Veliparib] (first compound 0.001 µM, partner dose 1.4 µM) showed a cell count of 58.5%.
With `Cc1cc(Nc2cc(N3CCN(C)CC3)nc(/C=C/c3ccccc3)n2)n[nH]1` + COCC[n+]1c2c(n(Cc3cnccn3)c1C)C(=O)c1ccccc1C2=O [YM155] (first compound 0.04 µM, partner dose 0.0004 µM) the cell count was 100%.
`Cc1cn(-c2cc(NC(=O)c3ccc(C)c(Nc4nccc(-c5cccnc5)n4)c3)cc(C(F)(F)F)c2)cn1` [nilotinib] + CC(C)C[C@H](NC(=O)[C@H](Cc1ccccc1)NC(=O)c1cnccn1)B(O)O [Bortezomib] (first compound 0.2 µM, partner dose 0.001 µM) gave a cell count of 105%.
For `Cn1c(=O)n(-c2ccc(C(C)(C)C#N)cc2)c2c3cc(-c4cnc5ccccc5c4)ccc3ncc21` + CN1CCN(c2ccc3nc(-c4c(N)c5c(F)cccc5[nH]c4=O)[nH]c3c2)CC1 [Dovitinib] (first compound 0.004 µM, partner dose 0.1 µM), the cell count was 86.1%.
Molecule `CC(C)C[C@H](NC(=O)[C@H](Cc1ccccc1)NC(=O)c1cnccn1)B(O)O` [Bortezomib] + CCCS(=O)(=O)Nc1ccc(F)c(C(=O)c2c[nH]c3ncc(Cl)cc23)c1F [PLX4720] (first compound 0.001 µM, partner dose 0.08 µM) has a cell count of 53.8%.
`Cc1cn(-c2cc(NC(=O)c3ccc(C)c(Nc4nccc(-c5cccnc5)n4)c3)cc(C(F)(F)F)c2)cn1` [nilotinib] + OCc1c[nH]c2ccccc12 [Indole-3-carbinol] (first compound 0.2 µM, partner dose 0.8 µM) was tested, and the cell count was 95%.
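Note: cell number obtained by counting DAPI-stained nuclei in high-throughput microscope images with image analysis software, screen run in 1,536-well plates.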
